# In PubChem BioAssay AID2675 (National Center for Advancing Translational Sciences (NCATS), 2010):
# Screen size: about 280,000 compounds; about 100 (0.036%) were called active. Inconclusive results, whose numbers are uncertain, are shown with a selection of clear calls. The call rests on the fitted dose curve; in most records, active means well fitted inhibition curve with a large enough effect in the signal ratio, with a control signal flat (not every such curve was filed as active); inconclusive means small, poorly fitted or top-dose-only effect, or effect the other way, or a change in a side signal; inactive means no such curve, though single readings can be large or run the other way; the % refers to the signal ratio. Potencies of inconclusive entries are doubtful fits and often do not repeat. A note “side channel” means that the fit belongs to a control or component signal, not to the main read-out.
# Molecular target: Muscleblind-like protein 1 (Homo sapiens) (UniProt Q9NR56)
# Test: qHTS Assay for Inhibitors of MBNL1-poly(CUG) RNA binding
# Conditions: TR-FRET MBNL1-His/biotin-(CUG)12 binding, 665/545 ratio; activity change, negative = inhibition: at 57.5 µM (top of the series)
# Method in brief: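 Compound titration spanned 92 nM–58 uM against the MBNL1-His/biotin-(CUG)12 complex. After 60 min at room temperature with 5 nM streptavidin-XL665 and 0.055 ng/ul terbium anti-His, ratiometric 665/545 nm emission (Ex 340 nm) normalized to controls.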
# On the % scale 0 is the no-effect control and ±100 the full control effect; potency means the concentration at half of the fitted maximal effect; tags describe the fitted curve by direction and shape or compound fluorescence and quenching.
# Chain of UniProt Q9NR56 (Q9NR56 whole entry, looked up): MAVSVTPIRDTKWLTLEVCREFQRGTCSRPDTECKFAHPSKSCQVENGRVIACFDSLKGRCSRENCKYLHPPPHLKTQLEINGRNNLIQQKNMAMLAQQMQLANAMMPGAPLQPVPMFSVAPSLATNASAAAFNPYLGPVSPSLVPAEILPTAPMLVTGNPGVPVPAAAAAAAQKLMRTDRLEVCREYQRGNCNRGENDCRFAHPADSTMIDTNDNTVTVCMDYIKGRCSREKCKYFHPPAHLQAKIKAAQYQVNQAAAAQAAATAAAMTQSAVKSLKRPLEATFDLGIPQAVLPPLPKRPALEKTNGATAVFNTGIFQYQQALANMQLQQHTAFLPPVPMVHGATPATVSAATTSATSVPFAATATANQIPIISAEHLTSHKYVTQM
Structure (SMILES),Potency,"activity change, negative = inhibition"
CN1C[C@H](CNC(=O)OCc2ccccc2)C[C@@H]2c3cccc4c3c(cn4C)C[C@H]21,"inconclusive: 22.4 µM [quencher, side channel, single point]",
CSc1nc(N)c(N=Nc2ccc([As](=O)(O)O)cc2)c(=O)[nH]1,"inconclusive: 11.2 µM [quencher, side channel, partial curve]",
CC(=O)N1CN2CN(C(C)=O)CC(C(=O)c3ccc([N+](=O)[O-])cc3)(C2)C1,"inconclusive: 15.8 µM [quencher, side channel, partial curve]",
Nc1ccc2c(c1)Cc1cc([N+](=O)[O-])ccc1-2,"inconclusive: 7.08 µM [quencher, side channel, partial curve]",
CC(=O)c1ccc(NC(=O)c2cc(CC(C)C)on2)cc1,"inconclusive: 0.282 µM [quencher, side channel, full curve, poor fit]",
O=C(c1cc([N+](=O)[O-])ccc1N1CCNCC1)N1CCOCC1,,inactive: 29.8%
Cc1cccc(-n2c(O)c(/C=N/Nc3nc4c(c(=O)n(C)c(=O)n4C)n3C)c(=O)[nH]c2=S)c1,"inconclusive: 0.0891 µM [quencher, side channel, full curve, poor fit]",
CCOc1ccc(N2C(=O)NC(=O)/C(=C\c3cc(OC)c(OC)cc3[N+](=O)[O-])C2=O)cc1,"inconclusive: 35.5 µM [quencher, side channel, single point]",
C[N+]1=C(/C=C/Nc2ccccc2)C(C)(C)c2ccccc21,"inconclusive: 28.2 µM [quencher, side channel, partial curve]",
CC(C)N1C(=S)SC(C)(C)C1n1oc(=O)n(-c2ccc(Cl)c(Cl)c2)c1=O (stereo not given),"inconclusive: 0.631 µM [quencher, side channel, single point]",
CCOP(=O)(c1ccccc1)C(O)c1ccc([N+](=O)[O-])cc1 (stereo not given),"inconclusive: 25.1 µM [quencher, side channel, partial curve]",
O=C(c1c[nH]cc1-c1ccccc1)c1cccc2ccccc12,"inconclusive: 0.631 µM [quencher, side channel, full curve, poor fit]",
c1ccc2sc(C3CCNCC3)nc2c1,"inconclusive: 39.8 µM [fluorescent, single point]",
COc1ccc(/C=N/N=C(/N)N[N+](=O)[O-])c(OC)c1,"inconclusive: 31.6 µM [quencher, side channel, single point]",
O=C(NCCN1CCOCC1)c1ccc(Cl)nc1,,inactive: 2.71%
